Measurements from the supplement of paper PMC4604168 (melanoma cell lines).
Some of the results follow. Repeats are few or missing, and single values can be far off.

These compounds were tested on WM1716 (assay: cell count relative to DMSO control; melanoma cells; higher = more viable cells). Conditions: library dose: low library concentration; 72 h.
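Note: cell number obtained by counting DAPI-stained nuclei in high-throughput microscope images with image analysis software, screen run in 1,536-well plates.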

Q: With CCCS(=O)(=O)Nc1ccc(F)c(C(=O)c2c[nH]c3ncc(Cl)cc23)c1F + N#Cc1c(O)c2c(-c3ccc(-c4ccccc4O)cc3)csc2[nH]c1=O [A769662] (first compound 0.08 µM, partner dose 2 µM) as the compound, how does the cell count read?
A: 127%

Q: CN(c1ncccc1CNc1nc(Nc2ccc3c(c2)CC(=O)N3)ncc1C(F)(F)F)S(C)(=O)=O + CNC(=O)c1cc(Oc2ccc(NC(=O)Nc3ccc(Cl)c(C(F)(F)F)c3)cc2)ccn1 [sorafenib] (first compound 0.08 µM, partner dose 0.4 µM) was tested. Which cell count did it give?
A: 74.1%

Q: For CS(=O)(=O)c1ccc(C(=O)Nc2ccc(Cl)c(-c3ccccn3)c2)c(Cl)c1 [vismodegib] + COc1ccc2c(c1)CCC1C2CCC2(C)C(NCCCCCCN3C(=O)C=CC3=O)CCC12 [U73122] (first compound 1 µM, partner dose 0.4 µM), which cell count is on record?
A: 82.1%

Q: Which cell count does the source give for CS(=O)(=O)c1ccc(C(=O)Nc2ccc(Cl)c(-c3ccccn3)c2)c(Cl)c1 [vismodegib] + NC(=O)Nc1cc(-c2cccc(F)c2)sc1C(=O)N[C@H]1CCCNC1 [AZD7762] (first compound 1 µM, partner dose 0.02 µM) here?
A: 113%

Q: NC1(c2ccc(-c3nc4ccn5c(=O)[nH]nc5c4cc3-c3ccccc3)cc2)CCC1 + COc1cc2c(Oc3ccc4[nH]c(C)cc4c3F)ncnc2cc1OCCCN1CCCC1 [cediranib] (first compound 0.4 µM, partner dose 0.4 µM) was tested. Which cell count did it give?
A: 105%

Q: C=C(c1ccc(C(=O)O)cc1)c1cc2c(cc1C)C(C)(C)CCC2(C)C [Bexarotene] + COc1ccc(COc2ccc(Cc3cnc(N)nc3N)cc2OC)cc1 [GW2580] (first compound 2 µM, partner dose 1 µM) was tested. Which cell count did it give?
A: 92.3%

Q: For CS(=O)(=O)c1ccc(C(=O)Nc2ccc(Cl)c(-c3ccccn3)c2)c(Cl)c1 [vismodegib] + CC(=O)c1c(C)c2cnc(Nc3ccc(N4CCNCC4)cn3)nc2n(C2CCCC2)c1=O [palbociclib] (first compound 1 µM, partner dose 0.04 µM), which cell count is on record?
A: 87.1%

Q: For CN(c1ncccc1CNc1nc(Nc2ccc3c(c2)CC(=O)N3)ncc1C(F)(F)F)S(C)(=O)=O + Nc1nc(F)nc2c1ncn2[C@@H]1O[C@H](CO)[C@@H](O)[C@@H]1O [fludarabine] (first compound 0.08 µM, partner dose 0.2 µM), which cell count is on record?
A: 86.6%

Q: For CS(=O)(=O)c1ccc(C(=O)Nc2ccc(Cl)c(-c3ccccn3)c2)c(Cl)c1 [vismodegib] + COc1ccc(COc2ccc(Cc3cnc(N)nc3N)cc2OC)cc1 [GW2580] (first compound 1 µM, partner dose 1 µM), which cell count is on record?
A: 118%

Q: With CN(c1ncccc1CNc1nc(Nc2ccc3c(c2)CC(=O)N3)ncc1C(F)(F)F)S(C)(=O)=O + O=S(=O)(c1ccccc1)N(CC(F)(F)F)c1ccc(C(O)(C(F)(F)F)C(F)(F)F)cc1 [T0901317] (first compound 0.08 µM, partner dose 1.4 µM) as the compound, how does the cell count read?
A: 83.5%

Q: Which cell count does the source give for CCCS(=O)(=O)Nc1ccc(F)c(C(=O)c2c[nH]c3ncc(Cl)cc23)c1F + Cn1cc(/C=C2\C(=O)Nc3cccnc32)c2ccccc21 [GW441756] (first compound 0.08 µM, partner dose 0.4 µM) here?
A: 115%

Q: Which cell count does the source give for C=C(c1ccc(C(=O)O)cc1)c1cc2c(cc1C)C(C)(C)CCC2(C)C [Bexarotene] + Oc1nc(-c2ccc(C(F)(F)F)cc2)nc2c1CSCC2 [XAV939] (first compound 2 µM, partner dose 2 µM) here?
A: 58.7%

Q: CN(c1ncccc1CNc1nc(Nc2ccc3c(c2)CC(=O)N3)ncc1C(F)(F)F)S(C)(=O)=O + COc1cc2c(Oc3ccc4[nH]c(C)cc4c3F)ncnc2cc1OCCCN1CCCC1 [cediranib] (first compound 0.08 µM, partner dose 0.4 µM) was tested. Which cell count did it give?
A: 84.1%

Q: For CCCS(=O)(=O)Nc1ccc(F)c(C(=O)c2c[nH]c3ncc(Cl)cc23)c1F + COc1ccc(COc2ccc(Cc3cnc(N)nc3N)cc2OC)cc1 [GW2580] (first compound 0.08 µM, partner dose 1 µM), which cell count is on record?
A: 108%

Q: How did the cell count turn out when NC1(c2ccc(-c3nc4ccn5c(=O)[nH]nc5c4cc3-c3ccccc3)cc2)CCC1 + O=C(O)c1ccc2c(c1)nc(Nc1cccc(Cl)c1)c1ccncc12 [CX4945] (first compound 0.4 µM, partner dose 0.4 µM) was run?
A: 98.4%
